B1: YFP-CAD (domain or fragment)
chain: not shown
notes: In the CAD-CAD FRET the second copy carried CFP instead of YFP (CFP-CAD, gift of R. S. Lewis); also called WT CAD; source: HEK293-H, transfected, in live cells; not shown: YFP, N-terminal, kept
B2: YFP-CAD W350A (domain or fragment)
chain: not shown
notes: In the CAD-CAD FRET the second copy carried CFP instead of YFP; source: HEK293-H, transfected, in live cells; not shown: YFP, N-terminal, kept
B3: YFP-CAD L347A (domain or fragment)
chain: not shown
notes: as for B2

Target: the molecule itself
Experiment: FRET or BRET; E-FRET between YFP-CAD and CFP-CAD in live HEK293-H cells, to probe CAD dimerization

Row | Protein | E-FRET
1 | B1 | 0.11 ± 0.006
2 | B2 | 0.11 ± 0.009
3 | B3 | 0.13 ± 0.006

— PMC9304783, “Mapping interactions between the CRAC activation domain and CC1 regulating the activity of the ER Ca^2+ sensor STIM1” (The Journal of Biological Chemistry, 2022)
